Single values are uncertain, as repeats are few or missing.
How the values were obtained:
[1] = test system: CHO-K1; assay: micronucleus frequency (% of nucleated events); higher = more micronuclei (genotoxic)
[2] = test system: CHO-K1; assay: hypodiploid nuclei frequency (% of nucleated events); higher = more hypodiploid events (aneugenic)
Method: (§1)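 Flow-cytometric in vitro micronucleus assay (Litron MicroFlow) in CHO-K1 cells in 96-well plates, 19 concentrations (4.5-200 µM, n=1 per concentration). Without S9, cells were exposed for 24 h and sampled at 48 h. With Aroclor 1254-induced rat liver S9, cells were exposed for 3-4 h and sampled at 27-28 h. Read-outs are %MN and %hypodiploid nuclei relative to nucleated events, and relative survival as the nuclei-to-bead ratio versus the 1% DMSO vehicle control (x100).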

[3] = test system: CHO-K1; assay: relative survival (nuclei to bead ratio vs DMSO control) (% of vehicle control); higher = more surviving cells
Method: as §1
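For hypodiploid nuclei frequency (% of nucleated events) in this document: hypodiploid nuclei gated on a flow cytometer with 488 nm excitation after SYTOX Green staining, cultures at 37 °C, positive controls vinblastine without S9 and cyclophosphamide with S9.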
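For micronucleus frequency (% of nucleated events) in this document: cells lysed with nuclei stained by SYTOX Green, then micronucleus-gated events counted against nucleated events by flow cytometry with 488 nm excitation.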
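For relative survival (nuclei to bead ratio vs DMSO control) in this document: Lysed-cell nuclei stained with SYTOX Green and counted against counting beads by flow cytometry at 488 nm excitation, with vinblastine (no S9) and cyclophosphamide (plus S9) as positive controls.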

Cc1ccc([N+](=O)[O-])cc1N [2-Methyl-5-nitroaniline]
Details | hypodiploid nuclei frequency, [2] [%] | micronucleus frequency, [1] [%] | relative survival, [3]
concentration: 4.5 (µM), S9 metabolic activation: with S9, exposure time: 3-4 hours | 0.36 | 1.18 | 107
concentration: 4.5 (µM), S9 metabolic activation: without S9, exposure time: 24 hours | 3.18 | 2.96 | 99
concentration: 5.63 (µM), S9 metabolic activation: with S9, exposure time: 3-4 hours | 0.26 | 1.38 | 106
concentration: 5.63 (µM), S9 metabolic activation: without S9, exposure time: 24 hours | 2.24 | 2.28 | 105
concentration: 7.04 (µM), S9 metabolic activation: with S9, exposure time: 3-4 hours | 0.36 | 1.26 | 99.4
concentration: 7.04 (µM), S9 metabolic activation: without S9, exposure time: 24 hours | 2.46 | 2.04 | 97.8
concentration: 8.8 (µM), S9 metabolic activation: with S9, exposure time: 3-4 hours | 0.28 | 1.5 | 106
concentration: 8.8 (µM), S9 metabolic activation: without S9, exposure time: 24 hours | 2 | 2.06 | 99.8
concentration: 11 (µM), S9 metabolic activation: with S9, exposure time: 3-4 hours | 0.28 | 1.44 | 109
concentration: 11 (µM), S9 metabolic activation: without S9, exposure time: 24 hours | 2.18 | 2.4 | 94.3
concentration: 13.7 (µM), S9 metabolic activation: with S9, exposure time: 3-4 hours | 0.18 | 1.2 | 133
concentration: 13.7 (µM), S9 metabolic activation: without S9, exposure time: 24 hours | 1.9 | 2.5 | 95.8
concentration: 17.2 (µM), S9 metabolic activation: with S9, exposure time: 3-4 hours | 0.2 | 1.2 | 109
concentration: 17.2 (µM), S9 metabolic activation: without S9, exposure time: 24 hours | 1.68 | 2.7 | 114
concentration: 21.5 (µM), S9 metabolic activation: with S9, exposure time: 3-4 hours | 0.4 | 1.58 | 113
concentration: 21.5 (µM), S9 metabolic activation: without S9, exposure time: 24 hours | 1.52 | 2.52 | 95.1
concentration: 26.8 (µM), S9 metabolic activation: with S9, exposure time: 3-4 hours | 0.28 | 1.22 | 101
concentration: 26.8 (µM), S9 metabolic activation: without S9, exposure time: 24 hours | 2.92 | 1.76 | 88.2
concentration: 33.6 (µM), S9 metabolic activation: with S9, exposure time: 3-4 hours | 0.36 | 1.56 | 114
concentration: 33.6 (µM), S9 metabolic activation: without S9, exposure time: 24 hours | 2.16 | 1.44 | 107
concentration: 41.9 (µM), S9 metabolic activation: with S9, exposure time: 3-4 hours | 0.3 | 1.54 | 113
concentration: 41.9 (µM), S9 metabolic activation: without S9, exposure time: 24 hours | 1.6 | 2.08 | 95.5
concentration: 52.4 (µM), S9 metabolic activation: with S9, exposure time: 3-4 hours | 0.34 | 1.36 | 121
concentration: 52.4 (µM), S9 metabolic activation: without S9, exposure time: 24 hours | 2.2 | 1.96 | 98.2
concentration: 65.5 (µM), S9 metabolic activation: with S9, exposure time: 3-4 hours | 0.36 | 1.52 | 122
concentration: 65.5 (µM), S9 metabolic activation: without S9, exposure time: 24 hours | 2.56 | 3.08 | 89.2
concentration: 81.9 (µM), S9 metabolic activation: with S9, exposure time: 3-4 hours | 0.5 | 1.46 | 126
concentration: 81.9 (µM), S9 metabolic activation: without S9, exposure time: 24 hours | 2.12 | 2.14 | 116
concentration: 102 (µM), S9 metabolic activation: with S9, exposure time: 3-4 hours | 0.3 | 1.98 | 118
concentration: 102 (µM), S9 metabolic activation: without S9, exposure time: 24 hours | 2.14 | 2.24 | 94.3
concentration: 128 (µM), S9 metabolic activation: with S9, exposure time: 3-4 hours | 0.38 | 2.56 | 110
concentration: 128 (µM), S9 metabolic activation: without S9, exposure time: 24 hours | 2.28 | 2.52 | 96.2
concentration: 160 (µM), S9 metabolic activation: with S9, exposure time: 3-4 hours | 0.4 | 1.84 | 113
concentration: 160 (µM), S9 metabolic activation: without S9, exposure time: 24 hours | 2.32 | 2.96 | 105
concentration: 200 (µM), S9 metabolic activation: with S9, exposure time: 3-4 hours | 0.4 | 2.08 | 123
concentration: 200 (µM), S9 metabolic activation: without S9, exposure time: 24 hours | 2.58 | 4.04 | 85.7

CCCCCCCC1CCC(=O)O1 (centres undefined) [5-Heptyldihydro-2(3H)-furanone]
hypodiploid nuclei frequency [%], [2]
Details | S9 metabolic activation: with S9, exposure time: 3-4 hours | S9 metabolic activation: without S9, exposure time: 24 hours
concentration: 4.5 (µM) | 0.3 | 0.3
concentration: 5.63 (µM) | 0.18 | 0.46
concentration: 7.04 (µM) | 0.28 | 0.36
concentration: 8.8 (µM) | 0.22 | 0.46
concentration: 11 (µM) | 0.18 | 0.38
concentration: 13.7 (µM) | 0.16 | 0.54
concentration: 17.2 (µM) | 0.08 | 0.68
concentration: 21.5 (µM) | 0.44 | 0.46
concentration: 26.8 (µM) | 0.32 | 0.58
concentration: 33.6 (µM) | 0.26 | 0.6
concentration: 41.9 (µM) | 0.36 | 0.6
concentration: 52.4 (µM) | 0.32 | 0.44
concentration: 65.5 (µM) | 0.36 | 0.48
concentration: 81.9 (µM) | 0.24 | 0.66
concentration: 102 (µM) | 0.34 | 0.62
concentration: 128 (µM) | 0.26 | 0.76
concentration: 160 (µM) | 0.38 | 0.68
concentration: 200 (µM) | 0.16 | 0.96

Reference: the supplement of paper PMC9151546
